The full ranking holds about 33,000 sequences; the median of “E-score (-0.5 to 0.5)” is about -0.054, and the highest 2% start at about 0.39. This is one part of the list.
molecular target: Ylr278c (UniProt Q05854); test: PBM E-score (8-mer binding enrichment) (E-score (-0.5 to 0.5)); higher = stronger / more preferred TF binding; most listed sequences are background and not binding sites; conditions: protein concentration: 200 nM; construct: GST-DNA-binding domain
In short: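 Masliner-normalised scans of fluorescent anti-GST signal were the basis for scoring. That signal came from GST-tagged yeast transcription factors applied at about 100-200 nM to double-stranded universal all-10-mer Agilent arrays on fresh or once-stripped slides. Each ungapped eight-base word, pooled with its reverse complement, received an E-score from the Universal PBM Analysis Suite.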

Sequence	PBM E-score
AAGGTCTC	-0.206
AACCCCTG	-0.0141
TTCGCAAA	0.172
GCAACGAA	-0.0933
ATCTAAAC	0.0895
ATGACGTC	0.114
AATTGATG	0.0757
AACAGGTT	-0.167
AGTTCATG	0.135
CAATCAGC	-0.153
CATGCGCC	0.166
CCCAGCGC	0.0192
AATTGCAA	0.0181
AGGCCGTG	0.142
AAGTAATT	0.0591
ATTATTTC	0.175
CCTCCCAG	-0.216
CACAACGC	0.077
GAATGCGA	0.103
AGTAGCTA	0.0312
CTATCCAG	-0.0623
AGCATACA	-0.0973
GTTTCGGA	0.4
GGTAGCAC	-0.114
CGGTGGAG	0.118

Sequence	PBM E-score
CTCAAGCC	0.0394
GAGAGAGC	-0.0857
CGGCCGAA	0.318
AGCCTTAT	-0.0811
GGGATCAA	-0.0692
GACGGACA	0.328
CGCCATGA	-0.0784
TACTGTAA	-0.0262
ATTGTCTC	-0.0615
TGAAACCA	0.0471
AGTAGGCG	-0.0103
CTATAGTA	0.0716
CAACTCGA	-0.182
ACGACTGA	-0.157
ATTTCAAA	-0.0254
CACGCGCA	0.047
AATAGCTG	-0.125
GGTGGGAA	0.016
CCTCCGCC	0.413
ATCCTTGA	-0.109
CGAGATGC	-0.0147
GGGACCCA	0.0522
ACCCTCAA	-0.0838
AATTTCCG	0.448
ATATCAGG	-0.12

Sequence	PBM E-score
TAGAAAGA	-0.131
AATAGGAG	-0.198
GACGCAGC	-0.258
AGAAGCGC	0.11
AATTGAAG	0.0497
ACTAGGAG	-0.0249
ACTCTTAC	-0.123
AAGTGTAG	-0.169
CGGTCCGA	0.455
ACAAGCAC	-0.101
GTGTACGA	-0.00044
AAAAAGTG	-0.0929
CCGGTCGC	0.236
GCCCAGAC	-0.159
CCTGAAAA	0.021
ATAGTGAT	-0.203
AATAAGTA	-0.0932
AGATTTGA	-0.129
GCGCCCTA	-0.0209
ATCTTTCA	0.0509
AGTCTTGC	-0.265
AGTCCAAC	-0.104
GGGGTTCA	0.0957
AAGCCCTT	-0.267
CATACCCA	-0.159

Sequence	PBM E-score
AGGGGACG	-0.162
CTGGTTCA	-0.23
CGACACTA	0.102
AGAACAAC	0.0283
CATTTATA	-0.0229
GCCGTGGA	0.15
ATAACAGA	-0.124
ACCGACTG	0.0883
AACAAAAC	0.0279
AGGGTTGA	-0.124
AAATCCTT	-0.061
CACCGGTC	0.183
CAGTAGGA	-0.168
TACCGGCA	0.309
AGACCGGG	0.304
CTCGAATC	-0.233
CCCGGGCA	0.331
AGCGCTAG	-0.126
CTACCTCA	0.00428
CATGTCCG	0.384
ACGCAAGG	-0.274
CACACGCG	0.0929
CCGGACGA	0.406
CCTTCAGA	-0.282
GAGATTCC	0.272

Sequence	PBM E-score
AATCTTCC	0.167
ATGTTAGG	-0.23
AGAAGTCT	-0.211
CACAAACA	-0.103
CTACATTA	-0.193
AGAACACC	0.015
CCATTAGA	-0.0631
ATCTAATG	-0.0201
ACACAAGA	-0.0979
ATTACGAC	-0.0801
GAGTCCCA	0.0804
CCCGTTCC	0.162
AAACTTAA	-0.0688
AGTTAGGG	-0.149
CAACATAC	-0.0104
GAGTGCGA	0.00334
CTTAAGCC	0.0779
ACTTCACA	-0.208
CCCAACGC	-0.0231
ACAAGAAT	-0.0858
CAGAGCAG	-0.245
ACGGCCCG	0.115
AATTGTAC	-0.0759
ACTCTCTC	0.0619
ATGCGTTG	-0.0486

Sequence	PBM E-score
AGTATACA	-0.144
ACTGTTTG	-0.251
GACTTAAA	-0.0827
CTGGGAAC	-0.0778
ACTTTGGA	-0.236
GGTTTAAC	0.067
GCATCCAC	-0.0261
TACAACAA	-0.0845
CGCTGAGA	-0.0287
TGCGTACA	-0.265
ACTGTCCG	0.31
CTGTGGTA	-0.222
AACCTTAC	-0.0631
GCCAGAAA	-0.00062
ACACTTCT	-0.105
AGGGCGGC	0.078
ATTGATAG	-0.132
CCATATAC	-0.00364
CAGCAGTC	-0.0921
ATATAACA	-0.033
CTATGAAA	-0.141
GACACCTA	-0.0802
GTTCATAA	-0.217
GTCTGTTA	-0.13
AATCTACC	0.0783

Sequence	PBM E-score
ATCGAGAC	-0.0882
AGCCATAT	-0.111
ATCGTGCA	-0.126
CAGGTTCA	-0.299
CTGGACTA	-0.129
CCAAGGAG	-0.0113
CGTGTGAA	-0.0243
GCGATCTA	-0.056
CCCTATAA	-0.0302
ACGTACTC	0.00424
TCCATAAA	-0.212
CGATCCTC	-0.00507
CTCTGGTC	0.058
AAGGCAGA	-0.156
GTCTCCAC	-0.217
GATCCAGA	-0.0826
CAGCGATA	-0.0473
AGATAATC	0.15
AATGGTTA	-0.069
CCACGCCG	0.143
AAGACTAT	-0.207
AAGATTCA	0.021
